Experimental data: article PMC4081100
The entries are a selection whose mix differs from that of the whole data set. For some assays here: At the low end of the ranking the order means little. The list shows a part of the results. For some assays here: The source does not settle which construct or isoform was used.

Experiments:
Test in all cases: universal protein binding microarray (PBM)
Details in all cases: transcription factors of Arabidopsis thaliana; high values mean tight binding; most listed sequences are background and not binding sites; double strand, one strand shown
[1] = molecular target: T1, GST-ANAC092(1-176) (UniProt Q9FKA0)
T1 sequence: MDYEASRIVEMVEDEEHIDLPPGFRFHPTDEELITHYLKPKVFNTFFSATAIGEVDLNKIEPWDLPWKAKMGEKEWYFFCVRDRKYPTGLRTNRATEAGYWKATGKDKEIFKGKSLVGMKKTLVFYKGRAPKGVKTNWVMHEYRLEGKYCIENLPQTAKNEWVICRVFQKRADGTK

[2] = molecular target: T2, GST-ANAC019 NAC domain (UniProt Q9C932)
T2 sequence: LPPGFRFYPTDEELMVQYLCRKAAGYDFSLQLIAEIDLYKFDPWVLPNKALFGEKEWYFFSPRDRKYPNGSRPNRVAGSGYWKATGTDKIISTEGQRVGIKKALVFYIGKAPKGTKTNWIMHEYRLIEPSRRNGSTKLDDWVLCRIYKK

[3] = molecular target: T3, GST-ANAC055(1-171) (UniProt Q9LDY8)
T3 sequence: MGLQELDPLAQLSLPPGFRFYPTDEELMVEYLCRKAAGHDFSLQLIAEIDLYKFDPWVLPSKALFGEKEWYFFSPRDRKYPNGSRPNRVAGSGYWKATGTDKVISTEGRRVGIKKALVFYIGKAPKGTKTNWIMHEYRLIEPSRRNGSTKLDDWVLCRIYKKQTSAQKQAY

[4] = molecular target: T4, GST-ATAF1 NAC domain (UniProt Q39013)
T4 sequence: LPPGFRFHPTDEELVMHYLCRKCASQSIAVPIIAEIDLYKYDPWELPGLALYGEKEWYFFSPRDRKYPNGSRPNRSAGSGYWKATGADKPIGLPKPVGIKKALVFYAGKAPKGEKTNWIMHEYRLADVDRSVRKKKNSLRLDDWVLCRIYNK

[5] = molecular target: T5, GST-ANAC092(1-285) full length (UniProt Q9FKA0)
T5 sequence: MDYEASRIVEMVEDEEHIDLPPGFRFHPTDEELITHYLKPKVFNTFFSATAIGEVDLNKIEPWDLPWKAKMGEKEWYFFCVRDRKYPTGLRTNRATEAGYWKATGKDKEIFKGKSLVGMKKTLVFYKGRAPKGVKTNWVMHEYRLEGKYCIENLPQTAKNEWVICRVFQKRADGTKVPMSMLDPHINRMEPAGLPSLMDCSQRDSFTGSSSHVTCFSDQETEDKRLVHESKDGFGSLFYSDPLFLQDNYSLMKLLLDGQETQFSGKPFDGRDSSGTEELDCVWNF

[6] = molecular target: T6, GST-NAP(1-166) (UniProt O49255)
T6 sequence: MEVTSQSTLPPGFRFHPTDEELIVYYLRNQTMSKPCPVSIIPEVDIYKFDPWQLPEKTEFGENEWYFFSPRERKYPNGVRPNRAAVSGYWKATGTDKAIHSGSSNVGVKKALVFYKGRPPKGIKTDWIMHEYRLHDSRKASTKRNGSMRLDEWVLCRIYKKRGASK

[7] = molecular target: T7, GST-NTL8 NAC domain (UniProt Q9XIN7)
T7 sequence: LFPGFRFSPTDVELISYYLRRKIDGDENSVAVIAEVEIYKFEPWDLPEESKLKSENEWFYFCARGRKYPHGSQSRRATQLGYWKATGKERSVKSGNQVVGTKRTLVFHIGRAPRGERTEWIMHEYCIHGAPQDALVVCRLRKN

[8] = molecular target: T8, GST-SND1(1-203) (UniProt Q9LPI7)
T8 sequence: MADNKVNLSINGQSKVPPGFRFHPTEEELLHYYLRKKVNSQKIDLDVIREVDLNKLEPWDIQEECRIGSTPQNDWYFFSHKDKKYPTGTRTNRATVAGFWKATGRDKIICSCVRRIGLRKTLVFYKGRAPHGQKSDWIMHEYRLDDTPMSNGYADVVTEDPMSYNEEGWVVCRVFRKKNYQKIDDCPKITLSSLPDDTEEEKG

[9] = molecular target: T9, GST-VND3 NAC domain (UniProt Q9FH59)
T9 sequence: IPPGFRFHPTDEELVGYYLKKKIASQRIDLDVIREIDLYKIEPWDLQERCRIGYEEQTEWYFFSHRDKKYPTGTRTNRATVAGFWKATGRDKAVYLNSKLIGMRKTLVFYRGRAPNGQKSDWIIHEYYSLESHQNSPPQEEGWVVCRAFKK

[10] = molecular target: T10, GST-VND7 NAC domain (UniProt Q9C8W9)
T10 sequence: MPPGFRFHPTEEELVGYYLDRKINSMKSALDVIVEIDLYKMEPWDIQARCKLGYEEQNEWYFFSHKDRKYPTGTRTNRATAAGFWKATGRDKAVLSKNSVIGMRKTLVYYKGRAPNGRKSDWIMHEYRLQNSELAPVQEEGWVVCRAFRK

[11] = molecular target: T11, GST-VOZ2 (Arabidopsis thaliana) (UniProt Q9SLB9)
T11 sequence: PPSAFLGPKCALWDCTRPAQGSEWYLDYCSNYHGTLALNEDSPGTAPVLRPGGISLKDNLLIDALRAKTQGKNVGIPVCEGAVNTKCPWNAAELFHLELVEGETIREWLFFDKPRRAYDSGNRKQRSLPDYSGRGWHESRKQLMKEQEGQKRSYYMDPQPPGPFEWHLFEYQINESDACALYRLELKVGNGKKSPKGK

[12] = molecular target: GST-WRKY1(266-371) (UniProt Q9SI37)
[13] = molecular target: GST-NTL6(1-168) (UniProt Q9SCK6)
[14] = molecular target: T12, GST-NST2(1-184) (UniProt Q9M274)
T12 sequence: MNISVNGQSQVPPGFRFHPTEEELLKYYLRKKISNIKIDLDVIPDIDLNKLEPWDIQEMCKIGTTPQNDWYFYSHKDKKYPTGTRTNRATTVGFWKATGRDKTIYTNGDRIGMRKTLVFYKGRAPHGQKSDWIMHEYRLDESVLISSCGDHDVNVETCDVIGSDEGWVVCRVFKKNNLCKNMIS

Sequence | binding signal [1] | binding signal [2] | binding signal [3] | binding signal [4] | binding signal [5] | binding signal [6] | binding signal [7] | binding signal [8] | binding signal [9] | binding signal [10] | binding signal [11] | binding signal [12] | binding signal [13] | binding signal [14]
AGGTTTCC | -0.0192 E-score | 0.0846 E-score | 0.034 E-score | -0.0104 E-score | 0.0149 E-score | -0.0194 E-score | 0.457 E-score | -0.0729 E-score | 0.0315 E-score | -0.0642 E-score | -0.0912 E-score | -0.143 E-score | – | –
CGTCAAAG | 0.0844 E-score | – | 0.00317 E-score | -0.0234 E-score | 0.149 E-score | -0.0858 E-score | 0.0498 E-score | 0.199 E-score | -0.0724 E-score | -0.0265 E-score | 0.0427 E-score | 0.427 E-score | 0.0185 E-score | –
CGTAGTCA | -0.122 E-score | – | 0.000865 E-score | – | 0.00502 E-score | 0.0254 E-score | -0.0624 E-score | 0.161 E-score | 0.0459 E-score | -0.00583 E-score | 0.0627 E-score | 0.405 E-score | -0.163 E-score | -0.0564 E-score
AGGGTAAC | – | -0.00463 E-score | -0.0257 E-score | -0.0351 E-score | 0.0751 E-score | -0.0184 E-score | – | -0.00748 E-score | -0.0172 E-score | -0.0675 E-score | 0.00562 E-score | -0.185 E-score | – | 0.0175 E-score
GGGTCAAA | – | -0.0521 E-score | -0.00511 E-score | -0.0413 E-score | 0.00507 E-score | -0.163 E-score | 0.00301 E-score | 0.0079 E-score | -0.0717 E-score | -0.134 E-score | -0.0201 E-score | 0.48 E-score | -0.0453 E-score | –
GCCGTGTA | 0.341 E-score | – | – | 0.314 E-score | – | 0.235 E-score | -0.128 E-score | 0.0913 E-score | 0.347 E-score | 0.351 E-score | -0.17 E-score | -0.12 E-score | -0.11 E-score | –
ATTCCTTA | – | 0.0942 E-score | – | – | – | -0.0988 E-score | 0.237 E-score | 0.306 E-score | 0.0907 E-score | 0.064 E-score | 0.0658 E-score | 0.0163 E-score | 0.486 E-score | 0.224 E-score
ACGGAACT | – | – | 0.438 E-score | – | – | 0.452 E-score | – | 0.178 E-score | 0.417 E-score | 0.445 E-score | 0.0277 E-score | 0.0348 E-score | 0.012 E-score | –
GGGAAACC | – | 0.0318 E-score | -0.061 E-score | -0.114 E-score | 0.0329 E-score | -0.0407 E-score | – | 0.00853 E-score | -0.00445 E-score | -0.0737 E-score | -0.0731 E-score | -0.0416 E-score | 0.0435 E-score | -0.0787 E-score
ACGTCTCT | 0.0939 E-score | – | – | – | – | 0.381 E-score | 0.0152 E-score | 0.0793 E-score | 0.418 E-score | 0.442 E-score | -0.0847 E-score | -0.0299 E-score | 0.018 E-score | –
GCACGCGA | – | -0.0753 E-score | -0.0674 E-score | -0.143 E-score | 0.429 E-score | -0.0234 E-score | -0.125 E-score | 0.286 E-score | -0.192 E-score | -0.00898 E-score | -0.0408 E-score | -0.0391 E-score | -0.0667 E-score | –
AGGTAACC | – | 0.0345 E-score | -0.004 E-score | -0.0178 E-score | – | -0.0575 E-score | – | -0.0325 E-score | -0.0411 E-score | 0.0253 E-score | -0.177 E-score | -0.0721 E-score | – | 0.034 E-score
GGGGGAAA | – | – | -0.0331 E-score | -0.18 E-score | – | -0.0908 E-score | – | 0.147 E-score | -0.0749 E-score | -0.061 E-score | 0.0617 E-score | -0.0788 E-score | 0.314 E-score | -0.00589 E-score
CTACGCCA | – | 0.00227 E-score | -0.0764 E-score | – | 0.34 E-score | -0.17 E-score | -0.0413 E-score | 0.454 E-score | -0.0456 E-score | -0.066 E-score | -0.0407 E-score | -0.167 E-score | -0.0833 E-score | –
CTATTGAC | -0.0967 E-score | -0.0585 E-score | – | – | 0.0456 E-score | – | -0.0591 E-score | 0.0254 E-score | 0.06 E-score | 0.0402 E-score | 0.00968 E-score | 0.451 E-score | – | 0.00979 E-score
AGTCCACG | – | 0.0759 E-score | -0.0449 E-score | -0.0088 E-score | -0.0185 E-score | 0.0231 E-score | -0.0457 E-score | -0.106 E-score | -0.0447 E-score | -0.0358 E-score | -0.107 E-score | 0.438 E-score | -0.0584 E-score | -0.0425 E-score
AAGACCGG | -0.0491 E-score | -0.0805 E-score | -0.123 E-score | -0.179 E-score | -0.214 E-score | 0.0296 E-score | -0.0331 E-score | -0.15 E-score | -0.1 E-score | -0.0926 E-score | -0.0926 E-score | – | -0.0999 E-score | -0.132 E-score
CGGGTCAA | -0.0873 E-score | -0.0632 E-score | -0.0804 E-score | -0.0497 E-score | -0.186 E-score | -0.104 E-score | -0.207 E-score | -0.0733 E-score | -0.298 E-score | -0.154 E-score | 0.0872 E-score | – | -0.192 E-score | 0.0301 E-score
CTGACCCA | -0.0868 E-score | -0.131 E-score | -0.0559 E-score | -0.0666 E-score | -0.174 E-score | -0.195 E-score | 0.00513 E-score | -0.118 E-score | -0.0707 E-score | -0.139 E-score | 0.0751 E-score | – | -0.0281 E-score | 0.0484 E-score
ATGGTCAG | -0.209 E-score | -0.0403 E-score | -0.0765 E-score | -0.199 E-score | -0.0404 E-score | -0.0671 E-score | -0.145 E-score | -0.0826 E-score | -0.0993 E-score | -0.0469 E-score | -0.0457 E-score | – | -0.172 E-score | -0.139 E-score
GGTCGTCA | -0.101 E-score | 0.0436 E-score | -0.112 E-score | -0.0578 E-score | -0.0659 E-score | -0.0561 E-score | -0.0311 E-score | -0.124 E-score | -0.0884 E-score | -0.0993 E-score | -0.0239 E-score | – | -0.175 E-score | -0.131 E-score
